{
  "source": "the supplement of paper PMC10724272",
  "note": "MIC of invasive clinical C. tropicalis isolates, CLSI broth microdilution (fluconazole 0.12-256 mg/L, up to 1,024 for the azole-resistant cluster and its neighbour group; other ranges not stated); higher = less susceptible. Call: susceptible or wild type [S] / resistant or non-wild type [R] by CLSI breakpoints or cut-offs; intermediate and dose-dependent carry no call. '<=' and '>=' at the end values are inferred; the source marks only some of them. Isolates are numbered anew.",
  "data": [
    {"compound": "Nc1[nH]c(=O)ncc1F [flucytosine]", "experiment": "CLSI broth microdilution.", "values": [
      {"test system": "Candida tropicalis isolate 34 (ERG11 copies: 5, Erg11p: Y132F, S154F (heterozygous))", "MIC": "≤ 0.06 mg/L [S]"},
      {"test system": "Candida tropicalis isolate 107 (ERG11 copies: 7, Erg11p: Y132F, S154F (heterozygous))", "MIC": "≤ 0.06 mg/L [S]"},
      {"test system": "Candida tropicalis isolate 439 (ERG11 copies: 2, Erg11p: no key change)", "MIC": "≤ 0.06 mg/L [S]"},
      {"test system": "Candida tropicalis isolate 159 (ERG11 copies: 2, Erg11p: no key change)", "MIC": "≤ 0.06 mg/L [S]"},
      {"test system": "Candida tropicalis isolate 142 (ERG11 copies: 2, Erg11p: no key change)", "MIC": "≤ 0.06 mg/L [S]"},
      {"test system": "Candida tropicalis isolate 331 (ERG11 copies: 2, Erg11p: no key change)", "MIC": "≤ 0.06 mg/L [S]"},
      {"test system": "Candida tropicalis isolate 327 (ERG11 copies: 2, Erg11p: no key change)", "MIC": "≤ 0.06 mg/L [S]"},
      {"test system": "Candida tropicalis isolate 384 (ERG11 copies: 2, Erg11p: no key change)", "MIC": "0.12 mg/L [S]"},
      {"test system": "Candida tropicalis isolate 356 (ERG11 copies: 2, Erg11p: no key change)", "MIC": "≤ 0.06 mg/L [S]"},
      {"test system": "Candida tropicalis isolate 259 (ERG11 copies: 4, Erg11p: Y132F, S154F (heterozygous))", "MIC": "≤ 0.06 mg/L [S]"},
      {"test system": "Candida tropicalis isolate 254 (ERG11 copies: 2, Erg11p: no key change)", "MIC": "≤ 0.06 mg/L [S]"},
      {"test system": "Candida tropicalis isolate 325 (ERG11 copies: 2, Erg11p: no key change)", "MIC": "≤ 0.06 mg/L [S]"},
      {"test system": "Candida tropicalis isolate 376 (ERG11 copies: 2, Erg11p: no key change)", "MIC": "0.12 mg/L [S]"},
      {"test system": "Candida tropicalis isolate 393 (ERG11 copies: 2, Erg11p: no key change)", "MIC": "≤ 0.06 mg/L [S]"},
      {"test system": "Candida tropicalis isolate 96 (ERG11 copies: 2, Erg11p: no key change)", "MIC": "≤ 0.06 mg/L [S]"},
      {"test system": "Candida tropicalis isolate 403 (ERG11 copies: 2, Erg11p: no key change)", "MIC": "≤ 0.06 mg/L [S]"},
      {"test system": "Candida tropicalis isolate 191 (ERG11 copies: 2, Erg11p: no key change)", "MIC": "≤ 0.06 mg/L [S]"},
      {"test system": "Candida tropicalis isolate 174 (ERG11 copies: 2, Erg11p: no key change)", "MIC": "≤ 0.06 mg/L [S]"}
    ]},
    {"compound": "OC(Cn1cncn1)(Cn1cncn1)c1ccc(F)cc1F [fluconazole]", "experiment": "CLSI broth microdilution.", "values": [
      {"test system": "Candida tropicalis isolate 383 (ERG11 copies: 2, Erg11p: no key change)", "MIC": "1 mg/L [S]"},
      {"test system": "Candida tropicalis isolate 305 (ERG11 copies: 2, Erg11p: no key change)", "MIC": "1 mg/L [S]"},
      {"test system": "Candida tropicalis isolate 35 (ERG11 copies: 2, Erg11p: no key change)", "MIC": "1 mg/L [S]"},
      {"test system": "Candida tropicalis isolate 399 (ERG11 copies: 2, Erg11p: no key change)", "MIC": "256 mg/L [R]"},
      {"test system": "Candida tropicalis isolate 106 (ERG11 copies: 2, Erg11p: no key change)", "MIC": "1 mg/L [S]"},
      {"test system": "Candida tropicalis isolate 322 (ERG11 copies: 2, Erg11p: no key change)", "MIC": "1 mg/L [S]"},
      {"test system": "Candida tropicalis isolate 178 (ERG11 copies: 2, Erg11p: no key change)", "MIC": "2 mg/L [S]"},
      {"test system": "Candida tropicalis isolate 223 (ERG11 copies: 8, Erg11p: Y132F, S154F (heterozygous))", "MIC": "256 mg/L [R]"},
      {"test system": "Candida tropicalis isolate 197 (ERG11 copies: 2, Erg11p: no key change)", "MIC": "8 mg/L [R]"},
      {"test system": "Candida tropicalis isolate 66 (ERG11 copies: 2, Erg11p: Y132F, S154F (heterozygous))", "MIC": "32 mg/L [R]"},
      {"test system": "Candida tropicalis isolate 120 (ERG11 copies: 2, Erg11p: no key change)", "MIC": "1 mg/L [S]"},
      {"test system": "Candida tropicalis isolate 73 (ERG11 copies: 2, Erg11p: no key change)", "MIC": "1 mg/L [S]"},
      {"test system": "Candida tropicalis isolate 105 (ERG11 copies: 2, Erg11p: no key change)", "MIC": "2 mg/L [S]"},
      {"test system": "Candida tropicalis isolate 396 (ERG11 copies: 2, Erg11p: Y132F, S154F (heterozygous))", "MIC": "32 mg/L [R]"},
      {"test system": "Candida tropicalis isolate 251 (ERG11 copies: 2, Erg11p: no key change)", "MIC": "1 mg/L [S]"},
      {"test system": "Candida tropicalis isolate 87 (ERG11 copies: 7, Erg11p: Y132F, S154F (heterozygous))", "MIC": "512 mg/L [R]"},
      {"test system": "Candida tropicalis isolate 438 (ERG11 copies: 2, Erg11p: Y132F, S154F (heterozygous))", "MIC": "32 mg/L [R]"},
      {"test system": "Candida tropicalis isolate 445 (ERG11 copies: 5, Erg11p: Y132F, S154F (heterozygous))", "MIC": "256 mg/L [R]"},
      {"test system": "Candida tropicalis isolate 34 (ERG11 copies: 5, Erg11p: Y132F, S154F (heterozygous))", "MIC": "256 mg/L [R]"},
      {"test system": "Candida tropicalis isolate 107 (ERG11 copies: 7, Erg11p: Y132F, S154F (heterozygous))", "MIC": "512 mg/L [R]"},
      {"test system": "Candida tropicalis isolate 439 (ERG11 copies: 2, Erg11p: no key change)", "MIC": "4 mg/L"},
      {"test system": "Candida tropicalis isolate 159 (ERG11 copies: 2, Erg11p: no key change)", "MIC": "2 mg/L [S]"},
      {"test system": "Candida tropicalis isolate 142 (ERG11 copies: 2, Erg11p: no key change)", "MIC": "1 mg/L [S]"},
      {"test system": "Candida tropicalis isolate 331 (ERG11 copies: 2, Erg11p: no key change)", "MIC": "256 mg/L [R]"},
      {"test system": "Candida tropicalis isolate 327 (ERG11 copies: 2, Erg11p: no key change)", "MIC": "2 mg/L [S]"},
      {"test system": "Candida tropicalis isolate 384 (ERG11 copies: 2, Erg11p: no key change)", "MIC": "2 mg/L [S]"},
      {"test system": "Candida tropicalis isolate 356 (ERG11 copies: 2, Erg11p: no key change)", "MIC": "1 mg/L [S]"},
      {"test system": "Candida tropicalis isolate 259 (ERG11 copies: 4, Erg11p: Y132F, S154F (heterozygous))", "MIC": "256 mg/L [R]"},
      {"test system": "Candida tropicalis isolate 254 (ERG11 copies: 2, Erg11p: no key change)", "MIC": "0.5 mg/L [S]"},
      {"test system": "Candida tropicalis isolate 325 (ERG11 copies: 2, Erg11p: no key change)", "MIC": "2 mg/L [S]"},
      {"test system": "Candida tropicalis isolate 376 (ERG11 copies: 2, Erg11p: no key change)", "MIC": "2 mg/L [S]"},
      {"test system": "Candida tropicalis isolate 393 (ERG11 copies: 2, Erg11p: no key change)", "MIC": "2 mg/L [S]"},
      {"test system": "Candida tropicalis isolate 96 (ERG11 copies: 2, Erg11p: no key change)", "MIC": "1 mg/L [S]"},
      {"test system": "Candida tropicalis isolate 403 (ERG11 copies: 2, Erg11p: no key change)", "MIC": "1 mg/L [S]"},
      {"test system": "Candida tropicalis isolate 191 (ERG11 copies: 2, Erg11p: no key change)", "MIC": "1 mg/L [S]"},
      {"test system": "Candida tropicalis isolate 174 (ERG11 copies: 2, Erg11p: no key change)", "MIC": "1 mg/L [S]"}
    ]},
    {"compound": "C[C@@H]1[C@H](O)[C@@H](C)/C=C/C=C/C=C/C=C/C=C/C=C/C=C/[C@H](O[C@@H]2O[C@H](C)[C@@H](O)[C@H](N)[C@@H]2O)C[C@@H]2O[C@](O)(C[C@@H](O)C[C@@H](O)[C@H](O)CC[C@@H](O)C[C@@H](O)CC(=O)O[C@H]1C)C[C@H](O)[C@H]2C(=O)O [amphotericin B]", "experiment": "CLSI broth microdilution.", "values": [
      {"test system": "Candida tropicalis isolate 383 (ERG11 copies: 2, Erg11p: no key change)", "MIC": "0.5 mg/L [S]"},
      {"test system": "Candida tropicalis isolate 305 (ERG11 copies: 2, Erg11p: no key change)", "MIC": "0.5 mg/L [S]"},
      {"test system": "Candida tropicalis isolate 35 (ERG11 copies: 2, Erg11p: no key change)", "MIC": "0.5 mg/L [S]"},
      {"test system": "Candida tropicalis isolate 399 (ERG11 copies: 2, Erg11p: no key change)", "MIC": "1 mg/L [S]"},
      {"test system": "Candida tropicalis isolate 106 (ERG11 copies: 2, Erg11p: no key change)", "MIC": "0.5 mg/L [S]"},
      {"test system": "Candida tropicalis isolate 322 (ERG11 copies: 2, Erg11p: no key change)", "MIC": "1 mg/L [S]"},
      {"test system": "Candida tropicalis isolate 178 (ERG11 copies: 2, Erg11p: no key change)", "MIC": "1 mg/L [S]"},
      {"test system": "Candida tropicalis isolate 223 (ERG11 copies: 8, Erg11p: Y132F, S154F (heterozygous))", "MIC": "0.5 mg/L [S]"},
      {"test system": "Candida tropicalis isolate 197 (ERG11 copies: 2, Erg11p: no key change)", "MIC": "1 mg/L [S]"},
      {"test system": "Candida tropicalis isolate 66 (ERG11 copies: 2, Erg11p: Y132F, S154F (heterozygous))", "MIC": "1 mg/L [S]"},
      {"test system": "Candida tropicalis isolate 120 (ERG11 copies: 2, Erg11p: no key change)", "MIC": "1 mg/L [S]"},
      {"test system": "Candida tropicalis isolate 73 (ERG11 copies: 2, Erg11p: no key change)", "MIC": "1 mg/L [S]"},
      {"test system": "Candida tropicalis isolate 105 (ERG11 copies: 2, Erg11p: no key change)", "MIC": "1 mg/L [S]"},
      {"test system": "Candida tropicalis isolate 396 (ERG11 copies: 2, Erg11p: Y132F, S154F (heterozygous))", "MIC": "0.5 mg/L [S]"},
      {"test system": "Candida tropicalis isolate 251 (ERG11 copies: 2, Erg11p: no key change)", "MIC": "0.5 mg/L [S]"},
      {"test system": "Candida tropicalis isolate 87 (ERG11 copies: 7, Erg11p: Y132F, S154F (heterozygous))", "MIC": "1 mg/L [S]"},
      {"test system": "Candida tropicalis isolate 438 (ERG11 copies: 2, Erg11p: Y132F, S154F (heterozygous))", "MIC": "0.5 mg/L [S]"},
      {"test system": "Candida tropicalis isolate 445 (ERG11 copies: 5, Erg11p: Y132F, S154F (heterozygous))", "MIC": "1 mg/L [S]"},
      {"test system": "Candida tropicalis isolate 34 (ERG11 copies: 5, Erg11p: Y132F, S154F (heterozygous))", "MIC": "0.5 mg/L [S]"},
      {"test system": "Candida tropicalis isolate 107 (ERG11 copies: 7, Erg11p: Y132F, S154F (heterozygous))", "MIC": "1 mg/L [S]"},
      {"test system": "Candida tropicalis isolate 439 (ERG11 copies: 2, Erg11p: no key change)", "MIC": "1 mg/L [S]"},
      {"test system": "Candida tropicalis isolate 159 (ERG11 copies: 2, Erg11p: no key change)", "MIC": "0.5 mg/L [S]"},
      {"test system": "Candida tropicalis isolate 142 (ERG11 copies: 2, Erg11p: no key change)", "MIC": "0.25 mg/L [S]"},
      {"test system": "Candida tropicalis isolate 331 (ERG11 copies: 2, Erg11p: no key change)", "MIC": "2 mg/L [S]"},
      {"test system": "Candida tropicalis isolate 327 (ERG11 copies: 2, Erg11p: no key change)", "MIC": "1 mg/L [S]"},
      {"test system": "Candida tropicalis isolate 384 (ERG11 copies: 2, Erg11p: no key change)", "MIC": "1 mg/L [S]"},
      {"test system": "Candida tropicalis isolate 356 (ERG11 copies: 2, Erg11p: no key change)", "MIC": "1 mg/L [S]"}
    ]}
  ]
}
